{"source": "the supplement of paper PMC11417369", "note": "The other results are listed elsewhere or left out.", "data": [{"system": "PF3D7_0420300 AP2 domain 1 (GST-tagged)", "experiment": "gcPBM binding intensity (ln(normalized median fluorescence intensity)); higher = stronger DNA binding", "in_short": "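For binding intensity, the highest Masliner-normalised natural-log median intensity across replicate spots of either probe orientation was taken. Protein bound to the array was stained with Alexa488 anti-GST antibody and scanned at 488 nm. The protein, GST-tagged P. falciparum DNA-binding domains from E. coli at about 25 μg on average, had been applied for 1 h to an Agilent 4 × 180k array of primer-extended double-stranded 36-bp intergenic genomic probes and negative controls.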", "values": [{"sequence": "CATTTATATATATACACACACACAAAAAAAAAAAAA [CACACA_site2645]", "gcPBM binding intensity (ln)": 9.98}, {"sequence": "ATTTAACTAAAGAAGGCACACGTGTTTAAAAAAAAA [CACACA_site5241]", "gcPBM binding intensity (ln)": 9.23}, {"sequence": "GACGTTATGATACACATACACACAGGGATAAAAAAT [CACACA_site2882]", "gcPBM binding intensity (ln)": 9.63}, {"sequence": "AATATTATATTTTATTGTACTAATAAAAATATATGC [XGTACX_site5435]", "gcPBM binding intensity (ln)": 9.02}, {"sequence": "TTTTTTTTTTTTTTTTGTACTTAAAAATTTATATAA [XGTACX_site7718]", "gcPBM binding intensity (ln)": 8.45}, {"sequence": "TATATATATATATATGCATGTACATATATTTGTTAT [TGCATGCA_site379]", "gcPBM binding intensity (ln)": 9.57}, {"sequence": "ATAATATGAAATATAACACACATATATAAAAACATT [CACACA_site866]", "gcPBM binding intensity (ln)": 9.72}, {"sequence": "TATTTTTTTTTTGGGTGTACCTTTTATATATATTGT [XGTACX_site5036]", "gcPBM binding intensity (ln)": 9.51}, {"sequence": "TATACACATTTTTATACACACTTGTTTTATAAAACG [CACACA_site6480]", "gcPBM binding intensity (ln)": 9.44}, {"sequence": "ACAAAACGAACATACGCATGTGTGTACATTAATATA [TGCATGCA_site922]", "gcPBM binding intensity (ln)": 9.69}, {"sequence": "TTATTTACATCAAGTACATGCAGTAAAAAAAAAAAA [TGCATGCA_site351]", "gcPBM binding intensity (ln)": 9.08}, {"sequence": "CACCAATTCCTATGCACACACATCTGCATATTATAT [CACACA_site5049]", "gcPBM binding intensity (ln)": 9.93}, {"sequence": "ATATAATATATGTATACACACATATTATATAATATT [CACACA_site3699]", "gcPBM binding intensity (ln)": 9.38}, {"sequence": "ATGAACAGTTCATGTTGTACAATCTCCATTTTTTAC [XGTACX_site3933]", "gcPBM binding intensity (ln)": 9.35}, {"sequence": "CAATATAAAAAACACACACACAAACATATATTTATA [CACACA_site3703]", "gcPBM binding intensity (ln)": 10.1}, {"sequence": "TATTTATATAAAAATACACACATGAATGGATATATA [CACACA_site6335]", "gcPBM binding intensity (ln)": 9.55}, {"sequence": "TGTCGGCTTAGATTAGTGCACTGAAAAATGAAGTAT [GTGCAC_site9919]", "gcPBM binding intensity (ln)": 9}, {"sequence": "AATATAGTTCAATATACACACCCCTTTATTCATTTT [CACACA_site3625]", "gcPBM binding intensity (ln)": 9.58}, {"sequence": "GTAACATACACATATACACACACACCGATATACATA [CACACA_site8278]", "gcPBM binding intensity (ln)": 10.2}, {"sequence": "ATTAATTAAGGCACATGTACAAAATATTTTTTATAA [XGTACX_site1964]", "gcPBM binding intensity (ln)": 9.02}, {"sequence": "TATACAATCTATATAACACACATATTTATATAAAAT [CACACA_site1797]", "gcPBM binding intensity (ln)": 9.46}, {"sequence": "AAAAAAATTAAACATGAAGAATAAGGAACAAAAAAA [CACACA_negctrl_site1607]", "gcPBM binding intensity (ln)": 9.62}, {"sequence": "TTTAATCATATGTTATATAATAAGCCCCCCCCCCAA [CACACA_negctrl_site486]", "gcPBM binding intensity (ln)": 10.4}, {"sequence": "ATTTAAGTAGTACATACACACACATATACAAAAAGA [CACACA_site9317]", "gcPBM binding intensity (ln)": 9.93}, {"sequence": "ATGGGACATATATATACACACATATATATATATATA [CACACA_site1202]", "gcPBM binding intensity (ln)": 9.46}, {"sequence": "TTTCGATTAAAAATTGTACAATATAAGGAGCACACA [GTGCAC_negctrl_site476]", "gcPBM binding intensity (ln)": 9.31}, {"sequence": "TAAAAAAAAAAATGAACATGCAACAATTGTGATGAA [TGCATGCA_site332]", "gcPBM binding intensity (ln)": 9.51}, {"sequence": "AACCACAGACATATAACACACATATACAATATATAT [CACACA_site5142]", "gcPBM binding intensity (ln)": 9.81}, {"sequence": "CTTTTTTTGACCTTAGTGCAAATAACTATATATTAT", "gcPBM binding intensity (ln)": 9.14}, {"sequence": "ATGAAAATTATAAAGTGTACATATAGAAACATTTAC [XGTACX_site8047]", "gcPBM binding intensity (ln)": 9.47}, {"sequence": "ACTGTAACAATCATGGGTACAAATAAAATAATATCT [XGTACX_site99]", "gcPBM binding intensity (ln)": 9.42}, {"sequence": "TTTTGTCTTATATGTTGTACAACGTAAACAAAAAAA [XGTACX_site4412]", "gcPBM binding intensity (ln)": 8.84}, {"sequence": "AAAAGAATATATAATTGTACTTAAAATATAATTAAG [XGTACX_site4484]", "gcPBM binding intensity (ln)": 9.14}, {"sequence": "CATTTCGAAAAAAAATGTACTTATTATATTTATATA [XGTACX_site6752]", "gcPBM binding intensity (ln)": 8.94}, {"sequence": "TGTATATATTATAAAAGTACATAATATTCTTAGATA [XGTACX_site5623]", "gcPBM binding intensity (ln)": 9.05}, {"sequence": "TTATCTTACATAAATTATAACAATAATATGTGTATA [XGTACX_negctrl_site379]", "gcPBM binding intensity (ln)": 9.01}, {"sequence": "ACATCTCTTATATATTCACACACATATATATAATTA [CACACA_site8424]", "gcPBM binding intensity (ln)": 9.83}, {"sequence": "TTTTTTTTTTAATTCGCACACTGTCTTCATGCAATT [CACACA_site4882]", "gcPBM binding intensity (ln)": 9.27}, {"sequence": "TTAAAAAATTTTTAAGCACACACATAGATAATATAT [CACACA_site8440]", "gcPBM binding intensity (ln)": 9.58}, {"sequence": "GCACATCTATATGAAACACACATGGAAACATCTCTT [CACACA_site7793]", "gcPBM binding intensity (ln)": 9.44}, {"sequence": "GAAACTTCAAGAAATGCACACAATAAAATAAATAAA [CACACA_site1549]", "gcPBM binding intensity (ln)": 9.4}, {"sequence": "AGCATTAAAAATGGAATGGAATTAAGCTATATATTA [CACACA_negctrl_site1571]", "gcPBM binding intensity (ln)": 9.28}, {"sequence": "AGTATATATTATATATATATATATATATTATATATG [TGCATGCA_negctrl_site99]", "gcPBM binding intensity (ln)": 9.1}, {"sequence": "ATAGAATATTATATTACACACAGAATAATAAAAAAT [CACACA_site86]", "gcPBM binding intensity (ln)": 9.62}, {"sequence": "TAACATATCTTTAATACACACTTAAAAAAGTACTTA [CACACA_site4532]", "gcPBM binding intensity (ln)": 9.15}, {"sequence": "GGAAACACAATATATACACACATATATATATATATA [CACACA_site235]", "gcPBM binding intensity (ln)": 9.46}, {"sequence": "ACACTTAAATATTGTTGTACAAAATGATAAAATGTA [XGTACX_site4588]", "gcPBM binding intensity (ln)": 9.25}, {"sequence": "TTATATAACCCTCATGCATGCTAAGAAAAAAAAAAC [TGCATGCA_site936]", "gcPBM binding intensity (ln)": 9.3}, {"sequence": "ATTTATATTATAATATGTACACAAAAAAAATTAGGA [XGTACX_site565]", "gcPBM binding intensity (ln)": 9.24}, {"sequence": "TTGATGTATACAATGTAGATTATTTAATATTTCAAT [GTGCAC_negctrl_site203]", "gcPBM binding intensity (ln)": 9.01}, {"sequence": "TTTCATGTTTTAAAGTGTACATAAATATATTATATG [XGTACX_site3367]", "gcPBM binding intensity (ln)": 9.18}, {"sequence": "TTTTTAATAAAATGATTGATAATTATTAAATTAAAA [CACACA_negctrl_site488]", "gcPBM binding intensity (ln)": 8.45}, {"sequence": "TTGTGTTTGCGTAAATGTACGGAAAGACTTGAAGAC [XGTACX_site7235]", "gcPBM binding intensity (ln)": 9.39}, {"sequence": "TTGTTAGAGTATATTGAAAGGATAACCTTTTTTTAT [XGTACX_negctrl_site122]", "gcPBM binding intensity (ln)": 9.01}, {"sequence": "TATTTTAACTTCTCATGTACATATATTATGTCTATA [XGTACX_site249]", "gcPBM binding intensity (ln)": 9.42}, {"sequence": "TATCATAAACTTCCTTACTATACTTTTCTTATTCAT [CACACA_negctrl_site1341]", "gcPBM binding intensity (ln)": 9.36}]}]}
